The full ranking holds about 33,000 sequences; the median of “E-score (-0.5 to 0.5)” is about -0.016, and the highest 2% start at about 0.32. This is one part of the list.
What follows are sequences tested against T1, Stp1 (UniProt B3LFK1) (assay: PBM E-score (8-mer binding enrichment) (E-score (-0.5 to 0.5)); higher = stronger / more preferred TF binding; most listed sequences are background and not binding sites). Conditions: protein concentration: 200 nM; construct: GST-full length.
T1 sequence: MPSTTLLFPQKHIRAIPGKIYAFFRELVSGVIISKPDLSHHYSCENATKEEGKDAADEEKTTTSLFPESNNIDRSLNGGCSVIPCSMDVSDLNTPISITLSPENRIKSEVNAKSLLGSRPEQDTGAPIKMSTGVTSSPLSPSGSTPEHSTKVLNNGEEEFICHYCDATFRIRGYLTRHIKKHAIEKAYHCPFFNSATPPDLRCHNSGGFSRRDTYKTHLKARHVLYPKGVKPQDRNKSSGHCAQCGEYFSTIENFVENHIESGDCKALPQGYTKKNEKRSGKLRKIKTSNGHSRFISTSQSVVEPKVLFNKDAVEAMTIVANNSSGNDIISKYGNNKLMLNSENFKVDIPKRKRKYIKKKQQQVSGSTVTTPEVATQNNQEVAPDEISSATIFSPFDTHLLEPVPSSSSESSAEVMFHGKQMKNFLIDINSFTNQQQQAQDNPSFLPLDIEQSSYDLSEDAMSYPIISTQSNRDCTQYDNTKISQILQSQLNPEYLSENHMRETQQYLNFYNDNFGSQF
Summary of the method: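 The E-score, a modified Wilcoxon-Mann-Whitney statistic, was computed by the Universal PBM Analysis Suite for every ungapped eight-base word pooled with its reverse complement. Scans behind it were normalised with masliner after bound GST-tagged yeast transcription factors were detected with fluorescent anti-GST. The proteins, at about 100-200 nM, had been applied to universal all-10-mer Agilent arrays made double-stranded by primer extension.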

Sequence	PBM E-score
GGCGTAAA	0.26
ATTGAGAA	0.108
ACCGTCGA	-0.187
ACTAGGTA	-0.0597
CCGACATA	0.0721
AAAAGGCT	0.0632
TAACCAAA	0.0592
TGGGCCCA	-0.142
CTAAATAC	0.152
CTTGATGA	0.1
TGACTAAA	0.00189
CTCAGGAC	-0.052
ACTTCTAT	-0.0835
CCTCCAGG	-0.298
AACTACAT	-0.0896
ATGCACGA	-0.0978
CACAAACC	-0.0675
ACGAACAG	0.0187
ATAAACAC	0.0181
GCCAAAAA	0.114
TGGGACAA	-0.23
CGCCGATC	0.285
GACCGCAA	-0.101
GCGGTTCA	-0.0576
GCAACCTA	0.081

Sequence	PBM E-score
CCAGCACG	-0.0583
CCCCCAAG	-0.211
AGCCGAAC	-0.0533
ACATTCCT	-0.207
CATCTCTA	0.0101
AAGAACCG	0.0917
AAGACATT	-0.247
GATCGGTA	0.0323
GCATGAAA	0.105
CTGGTATC	-0.231
CGCCCTGA	0.0616
ACGATCTG	-0.175
AGCAGGGC	0.156
GCACCGCC	0.0961
AGCATCAC	-0.0605
ATAATTAA	0.149
ACAAGTGT	0.0368
GAGCTCCA	-0.108
ACATGGAG	-0.14
CAACCTCC	-0.179
ATGCCTAG	-0.00683
TAACGCCA	0.133
TGATTACA	0.177
AGCTACTG	-0.229
CAGTGTGA	0.0291

Sequence	PBM E-score
CGATGTGC	-0.0706
CGACCTGC	-0.135
GTCAACGA	-0.144
AAGATGAA	0.0075
ACCCCTAT	-0.167
AGTATCCA	-0.0503
ATCAAGAA	0.0777
CACCCTGA	-0.185
GACAGGAA	-0.0209
ACCATTCT	-0.0969
TGATACAA	0.113
GTGCGTTA	0.0947
GATGGCCA	-0.0578
ACTCCCAC	-0.0658
CCCGACTC	-0.263
AGTGGAAG	-0.0659
ATGAACTG	0.184
GATTGTTA	0.0355
CCAGTAGC	0.111
CCTCAGCG	-0.0368
AACGAGCT	-0.14
AAACCTTC	-0.334
ACGTAGAG	-0.131
CTGTATGA	0.101
CACCCTCC	-0.183

Sequence	PBM E-score
TAACTACA	0.096
CAAAACAC	0.186
CTGCGCAA	0.185
CGATCCGA	-0.0648
AAACTCCA	0.0303
ATACAATC	0.0964
ACTCCTCA	-0.135
AGGTCGTA	-0.0763
AAAACCGC	-0.044
AGTACAGC	-0.059
AGTGCAGA	-0.0955
AACAAGTT	0.133
AACGCATG	-0.0148
ATACATCG	0.0672
ATCCATTA	0.0118
AGATTTGC	0.182
CGCATCCG	0.114
CGCCCGCC	0.108
ACGGGGCG	0.366
CACGACGC	-0.0621
CATGGCGC	0.261
ACGACTAG	-0.0901
CGCCTATC	0.183
GCTCTTGA	-0.112
CATTGGTA	0.0352

Sequence	PBM E-score
ATGTCCTC	-0.113
ACCATGCG	0.0344
GGGTCGCA	-0.105
ATCGCCAA	-0.0739
TCTATCAA	-0.138
GCTATGCC	0.0204
CCCTGCTA	-0.104
AATAAAGT	0.0842
AGAGAATG	0.00764
CTCACACC	-0.176
ACTACCAG	-0.116
AGTCATGG	-0.225
CGTGTGGC	0.353
CCAAGCCG	0.0253
ACCAGCAC	-0.231
AGCCCGAG	-0.116
AGAGCTCT	-0.464
CGGCCAGC	-0.206
GGCGATGA	0.119
CTTAACTC	0.126
AGTCGACA	-0.0207
TATGGCCA	-0.13
AATTGTCG	0.088
CCTCGAAA	0.0836
AAGGAGTA	-0.223

Sequence	PBM E-score
ATCGTCTA	-0.0813
CGACGTGC	0.116
CGAACTTA	-0.0262
CCCCAGAA	-0.237
CACCCACC	-0.192
TAAGCGCA	-0.185
ACCAATGG	-0.0962
AAGGTATA	-0.155
ATCCGCGA	0.112
GGTTCACA	0.00343
GAGTGCCC	-0.0325
CAGGCGTA	0.0281
ACTTCCCT	-0.131
TAAGTTGA	0.105
ACAGTCAC	-0.292
GGCATACA	0.0925
CCCAGAGC	-0.277
ACTACAAG	0.0276
ACTTCGCG	0.00995
GATGGACC	-0.174
CGACGCAC	0.0845
GTTCTCAA	0.2
AGCCTATG	-0.0976
ACTTGGCA	-0.072
GGACTTCA	-0.253

Sequence	PBM E-score
CGTAGCAG	-0.0847
TAAGCCTA	0.00057
AACTATAA	0.111
CTTCTAAC	-0.154
CAGCTCCG	0.0444
CTCTAACC	-0.172
CGCGCACG	0.154
GACATGAA	0.00806
CGCTTTCA	0.0783
CTACAAGA	-0.228
CGTCTGTC	0.0901
AATACTCG	-0.0553
CGTTTTCC	-0.00202
CCGCAGAA	0.207
GCATACGA	0.0766
ATGACCCG	-0.332
TCTTTGCA	0.165
AAGCGTGC	0.116
CATGTAGC	-0.128
CTGCCTAA	-0.00216
GGAACAGA	-0.057
ATTTATGG	0.19
CACTTGCC	-0.0372
GCCACCAC	0.0181
CTCAACCC	-0.204

Sequence	PBM E-score
CATGACCC	-0.227
CTCAGGTC	-0.196
CGGGGAAA	0.0657
TGCCATAA	0.0297
GAAGTAAC	0.0703
CACTTACC	0.0302
AGTAGAAA	0.0577
CGATGTTA	0.0738
CCTGTGCG	-0.0069
CAACTTAA	-0.00078
GTGTGATA	0.236
AGGTTTAT	0.0618
TACCCTAA	-0.0225
GTGCAACA	-0.0404
ATGATCGA	-0.0596
ACGGATCC	0.163
CAATGTGC	0.0858
GATATGCA	0.00421
GATATCCC	-0.11
AATTCACC	0.15
AAGATGGC	0.0565
GCGACATA	0.195
AGGGTACC	-0.349
AAGGAGCG	-0.183
GACGTTAC	0.195

Sequence	PBM E-score
GTCTGGAA	-0.0937
ATCCCTTA	-0.136
TCTTCAAA	0.109
CCATGCTA	-0.117
ATCTGTCG	-0.00104
GCCGTCTA	0.429
CATGTTGA	0.158
AAGACGTG	-0.0888
GCATAGTA	0.211
AGATTGAT	0.121
CTCAGTTC	-0.0626
AGGCACGG	0.397
ATAATGAG	0.0115
CACACCTG	-0.16
GCCTACCA	-0.0464
AAACTGAT	0.0989
AACCAGTA	0.0911
ACCATAGA	0.0359
CGTCGATC	0.0306

— the supplement of paper PMC3334620
